According to the supplement of paper PMC10126150:
Sequences with one replicate were seen in a single cluster, so their values are uncertain.

System: ATP
Assay: switch fluorescence ratio, 500 uM ATP over buffer (Cy3 cluster intensity, sum of 5 cycles each) (fold (ratio)); higher = stronger signal-on switching upon ATP binding; sequences stand for … in TCGTCGGCAGCGTCAGATGTGTATAAGAGACAGTTTTTTTTTTTTTTTTTTTTTTTTT…TC
Details: aptamer strand: ATP DNA aptamer (quencher-CACCTGGGGGAGTATTGCGGAGGAAGG + anchor), 100 nM annealed; ATP concentration: 500 uM; one replicate
Procedure, shortened: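 Clusters carrying Cy3-labelled switching strands on a modified Illumina MiSeq flow-cell were annealed to 100 nM quencher-labelled ATP aptamer and imaged in selection buffer. They were imaged again after 15 min with 500 uM ATP at 22 °C, over five buffer/ATP cycles with NaOH stripping and re-annealing in between. For each cluster, the fluorescence ratio is the summed Cy3 intensity of the target cycles divided by that of the buffer cycles, averaged per switch-domain sequence. Clusters outside 100-1000 RFU were left out.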
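Note: ATP exposure 15 min at 22 °C before imaging.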

Row | Sequence | switch fluorescence ratio
1 | CTTTTATCGT | 0.985
2 | CCTCTTGGAT | 1.62
3 | ACTTCGATTT | 1.17
4 | TATGACTAAA | 1.06
5 | TGGTTGCGAC | 0.974
6 | ATCTGCCGTA | 1
7 | TGCCGCCACG | 1.04
8 | CCAAGGCGGT | 1.34
9 | GTCGGTTTGG | 0.977
10 | GGTTCGCATG | 1.69
11 | TATCCCTGCG | 1.03
12 | ACATATTATC | 0.989
13 | TATATTGAGC | 1.01
14 | CGTTAGCGTA | 1.01
15 | CTCTACATAT | 1.13
16 | GGGGCCGCT | 0.943
17 | TTGTGAGGAT | 0.995
18 | TATCGCTCCG | 1.07
19 | CAATTCGCAT | 1.52
20 | TGGTTCAGCA | 1.02
21 | AGAGGTTTCA | 1.01
22 | GAAAGACAC | 1.05
23 | CCGTAACGTG | 1.18

Row | Sequence | switch fluorescence ratio
24 | CAAGCCGTAT | 1.14
25 | TTGACACCAA | 1.06
26 | CGTGATAGGG | 1.01
27 | TTCGAATTTA | 0.937
28 | GGATTCGGCC | 0.972
29 | GTTATCGGTA | 0.977
30 | GTGTGAGTAC | 0.953
31 | AATCTAATGG | 1
32 | TAGAACACAA | 1.02
33 | TAGCCCAGGA | 1.02
34 | TACTTAGGAC | 1.04
35 | TGATGAGGAC | 1
36 | GCCATGATTC | 0.958
37 | TAGTAATGAT | 1.03
38 | ATGCCCGCGA | 1.65
39 | AGCCTGGACG | 1.01
40 | TATTGCTACA | 1.03
41 | GGGGGCACTG | 1.07
42 | TCAAACCCGG | 1.04
43 | CGTTAAGAAG | 1.01
44 | AGCAAAATAA | 1.11
45 | AAGGACTTGT | 0.972
46 | TATCATGAGC | 0.923

Row | Sequence | switch fluorescence ratio
47 | TTCATGGGTT | 0.965
48 | GTATCTAGGG | 0.973
49 | ATTTCCACCA | 0.986
50 | AATAGTCGCG | 1.02
51 | TTCATCGCTA | 1.5
52 | CTAAGGCACA | 1.11
53 | GCATCTTTAA | 0.967
54 | TAATTAAGTT | 0.989
55 | TGATATGTAG | 0.911
56 | GGCATAGCTG | 0.995
57 | TGGTGGGTCA | 1
58 | GGCACGGCCA | 1.01
59 | TATGAAATCC | 1
60 | ACTGATATAA | 0.973
61 | AGGAGTATAA | 0.951
62 | GGTGGTGACA | 0.96
63 | GGTCTTGACG | 0.979
64 | GTTGCATGGC | 1.05
65 | GCTGGTTAAG | 1.03
66 | CCGAGGGGTG | 1.17
67 | AGAGGTAATG | 1.02
68 | GAACCATCCT | 1.6
69 | TCAACTGGCT | 1.02

Row | Sequence | switch fluorescence ratio
70 | TATACAGGTC | 0.988
71 | GTTGTAAAGC | 1.02
72 | GAGGAAAATG | 1.02
73 | CCTTTTCTTG | 1.12
74 | AATCCGTGAT | 1.16
75 | GAGGAAGAGG | 0.992
76 | TGATTACGAT | 1.03
77 | GCCGTTTAGG | 0.998
78 | CGCCCTGTGT | 1.29
79 | ATGCTGACCC | 1.08
80 | GGTCGTCGAT | 0.963
81 | AACGTATATC | 1.21
82 | TGCCCGCTTG | 1.04
83 | GGACCGGTAC | 1.01
84 | TATCTGGGAG | 1.02
85 | TCGTGCAGAG | 1.05
86 | TCTTTACCTC | 0.987
87 | TTTTCTGTAA | 0.998
88 | TGGTTTTAGT | 1
89 | ATTGACTGAA | 1.06
90 | CTATTCATTA | 1.56
91 | TTTGGTACG | 0.989
92 | CCATGAAAAA | 0.987

Row | Sequence | switch fluorescence ratio
93 | CGTTGGCTTA | 1.04
94 | CTCATTTATA | 0.994
95 | AATGTTTAAT | 1
96 | AAACTCAATC | 1.09
97 | TTGTGCACGG | 1.02
98 | TTCCTTCCGA | 3.47
99 | CGTGGTGTAT | 1.01
100 | TCTCATCAAT | 1.46
101 | GACGCGACGA | 1.46
102 | TGGTCTAGAG | 1
103 | CCTCAATTGG | 1.33
104 | CGGCTTGTGC | 0.989
105 | TGGACCTTTC | 2.68
106 | GCGTGCATCA | 1.02
107 | TGTGATCCGG | 1.04
108 | TCTTTGTCGC | 1.02
109 | CCAAGACTGC | 1.22
110 | GGGAGGTACA | 0.985
111 | AGTGATCGTT | 1.01
112 | GCACTTAGTA | 1.03
113 | GGATCTTGTT | 0.962
114 | CCAAGTTTGG | 1.01
115 | TGTACCTGGT | 1.01

Row | Sequence | switch fluorescence ratio
116 | GCAAGTCTGG | 0.975
117 | TAGAACATAT | 1.02
118 | TTGCGGGCGA | 1.01
119 | CAGGCAGTGC | 1.09
120 | TGCTAGACGC | 1.04
121 | AAGAGCATAC | 2.26
122 | TCGTGATTAT | 1.04
123 | TATAAGTCTG | 1.05
124 | AAGAAGTGGA | 0.965
125 | AACTAGGAAG | 0.96
126 | TTGAGCGCCG | 0.991
127 | CCCGTAGCCA | 2.23
128 | GTGTATTGAC | 1
129 | TACTCAGAAA | 1.27
130 | CCCAGCGGGC | 1.17
131 | AGTGTAGACG | 1.05
132 | GAGGTCAATC | 1.13
133 | CGGCGGATGC | 1.12
134 | ATCACGCTTA | 1.22
135 | GCGTTAGGTT | 1
136 | GGCAAAGAAT | 0.948
137 | AGGGCGGACC | 1.02
138 | AATTATTCGG | 1.03

Row | Sequence | switch fluorescence ratio
139 | GATTGAGGAT | 0.957
140 | TATCAGGTCA | 0.972
141 | TGAAGAACCT | 1.16
142 | TACTTTTAG | 0.887
143 | CGTTGAATGG | 0.968
144 | AGCAGTGAAG | 0.988
145 | ACGGCGGCAG | 1.03
146 | GAGGGCCTCC | 0.997
147 | CGACTGCAGA | 1.61
148 | AATATCGTGT | 0.94
149 | GCAAATACGA | 3.05
150 | AAGTAGACCC | 0.972
151 | ACACATAGTG | 0.942
152 | GCTTCTCCGA | 1.49
153 | TATACGGGG | 1.05
154 | TGCCATACCT | 1.14
155 | AAATGCGCGC | 1.01
156 | TGGAGTAAGG | 1.01
157 | ACACAATAAC | 1.93
